In all, about 110,000 compounds were measured (“z-score”: median about -0.1, highest 2% from about 2 on). This is one part of the list. Activity calls are given as the source filed them.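 How the source made its calls: active means z-score in the third read window above 3 or below -3; inactive means the rest.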

This experiment deals with Metabotropic glutamate receptor 8 (Rattus norvegicus) (UniProt P70579). Put plainly: mGluR8 Gi/Go-coupled signaling modulation – cell-based, rat, thallium flux, HTS, primary screen (AID 488969). The note with it: HEK293 rat mGluR8, GIRK (G protein-gated inwardly rectifying potassium channel) thallium flux, FluoZin2; at 10 µM; stronger effect = higher value; submaximal glutamate (EC20) added with thallium.
Sequence of UniProt P70579 (P70579 whole entry, looked up): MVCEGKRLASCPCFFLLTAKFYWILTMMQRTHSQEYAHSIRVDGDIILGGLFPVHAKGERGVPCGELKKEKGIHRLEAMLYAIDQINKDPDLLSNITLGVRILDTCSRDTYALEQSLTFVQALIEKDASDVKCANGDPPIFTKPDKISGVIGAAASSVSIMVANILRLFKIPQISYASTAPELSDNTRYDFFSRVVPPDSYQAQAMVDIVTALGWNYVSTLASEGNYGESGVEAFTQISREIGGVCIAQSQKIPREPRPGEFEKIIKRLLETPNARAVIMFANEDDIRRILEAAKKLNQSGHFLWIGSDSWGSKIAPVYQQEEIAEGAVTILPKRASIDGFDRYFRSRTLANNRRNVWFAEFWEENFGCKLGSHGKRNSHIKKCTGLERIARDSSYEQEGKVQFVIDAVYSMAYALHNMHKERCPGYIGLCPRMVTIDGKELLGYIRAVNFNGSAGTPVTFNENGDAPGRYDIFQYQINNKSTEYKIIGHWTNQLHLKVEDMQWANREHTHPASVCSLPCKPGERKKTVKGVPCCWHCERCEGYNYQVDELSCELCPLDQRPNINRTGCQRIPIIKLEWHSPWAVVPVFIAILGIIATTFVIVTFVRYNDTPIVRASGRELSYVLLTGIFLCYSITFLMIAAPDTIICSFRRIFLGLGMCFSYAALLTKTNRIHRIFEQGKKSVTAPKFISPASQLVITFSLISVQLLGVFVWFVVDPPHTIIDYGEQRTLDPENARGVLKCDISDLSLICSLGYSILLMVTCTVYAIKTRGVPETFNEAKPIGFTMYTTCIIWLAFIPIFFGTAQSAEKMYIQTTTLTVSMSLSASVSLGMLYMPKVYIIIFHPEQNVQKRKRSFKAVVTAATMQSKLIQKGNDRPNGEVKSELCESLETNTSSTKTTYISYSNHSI
As for `CCOC(=O)N1CCC(N2Cc3cccc(C(=O)N4CCN(C5CCCCC5)CC4)c3C2=O)CC1`, the z-score is -0.345. The compound `COc1cc(-c2nc3ccccc3c(=O)n2N)cc(OC)c1OC` returned a z-score of -0.0215.

`N#Cc1ccc(/C=C/C(=O)c2ccco2)cc1` had a z-score of -0.0561. In turn, `CCOc1ccc(OCC)c(-c2c(=O)n(OCc3ccccc3C(=O)OC)c3ccccc3[n+]2[O-])c1` yielded a z-score of -0.262. `CCn1c(CNc2ccc(C)cc2)nnc1SCC(=O)NCc1ccccc1` showed a z-score of -0.287. `Cc1ccc(NC(=O)C(C)c2ccc([N+](=O)[O-])cc2)cc1Cl` (centres undefined) displayed a z-score of -0.429. The same measure for `COc1cc(NC(=S)NC(=O)c2ccc(C(C)(C)C)cc2)ccc1NC(=O)c1cccs1`: -0.0222; for `CCOc1ncccc1C(=O)NCc1cccc(OC)c1`: -0.397; for `CN(CCc1ccccn1)S(=O)(=O)c1ccc(F)cc1`: -0.0951. For `O=[N+]([O-])c1ccc(Oc2cccc3cccnc23)c([N+](=O)[O-])c1`, the z-score is -0.181.

Turning to `Cc1sc2nc(C)n(/N=C/c3ccccc3O)c(=O)c2c1C`, the z-score is -0.126. `O=C(CSc1nnc(Cc2ccccc2)n1-c1cccc(Cl)c1)N1CCOCC1` came in with a z-score of 0.738. `C[N+]1(CC(=O)OCCCc2ccccc2)CCOCC1` gave a z-score of 0.941.

`CC(C)[C@H](NC(=O)OCc1ccccc1)C(=O)OCC(=O)Nc1c(F)cccc1F` showed a z-score of -0.556.

Turning to `COc1ccccc1-c1cc(C(F)(F)F)nc(S(=O)(=O)CCCC(=O)N2CCCCC2C)n1` (centres undefined), the z-score turned out to be 0.809. `CS(=O)(=O)N(CC(=O)N1CCN(c2ccccc2)CC1)c1ccccc1Cl` yielded a z-score of -0.0986. The same measure for `CCN(CCO)c1cc(Cl)nc(SC)n1`: -0.0741; for `O=C(N/N=C/c1ccc(Cl)cc1)Nc1ccccc1`: -0.0155. On to `CCSc1nnc(NC(=O)C2CC2c2ccccc2)s1` (centres undefined), for which the z-score was -1.48. As for `Cc1c(Cl)cccc1NC(=O)c1ccc(-n2ccnc2)nc1`, the z-score is 0.0859.

Regarding `O=C(N/N=C/c1ccc(O)cc1)c1csc2ccccc12`, the z-score is -0.157. As to `CSc1ccc(S(=O)(=O)Nc2ccc(N3CCOCC3)c(Cl)c2)cc1`, the z-score was 0.314. `COc1ccc(OC)c(N(CC(=O)NCc2cccnc2)S(C)(=O)=O)c1` showed a z-score of 0.361. In turn, `Cc1ccc(C(C(=O)NC2CCCCC2)N(C(=O)Cc2c[nH]c3ccccc23)c2ccccc2C)o1` (centres undefined) registered a z-score of -0.247.

Take `COc1cc(C(=O)OCc2ccc(C)cc2)cc(NC(=O)c2cccs2)c1OC`: the z-score is -0.449. Compound `Cc1cc(Cl)c(OCCCSc2nc(C)cc(=O)[nH]2)c(Br)c1` displayed a z-score of -0.354. As to `O=C1/C(=C/c2ccccc2)NC(=S)N1C(c1ccccc1)c1ccccc1`, the z-score was -0.277.

As for `Cc1cccc(NC(=O)CSc2ccc(-c3cccs3)nn2)c1C`, the z-score is -0.36. `CC(C)Cc1n[nH]c(=O)[nH]1` showed a z-score of 0.174.

Take `Cc1c(C(=O)Nc2ccccc2-c2ccccc2)cccc1[N+](=O)[O-]`: the z-score is -0.148. The value for `Cc1ccccc1C(=O)Nc1nnc(-c2ccc(F)cc2)o1` was -0.035; that for `Cc1ccccc1OCCCC(=O)Nc1ccc2c(c1)OCO2` was 0.157. Take `CCOc1ccc(/C=C/C(=O)Nc2ccc3[nH]c(=O)[nH]c3c2)cc1`: the z-score amounted to 0.494. In the case of `Cc1noc(NS(=O)(=O)c2ccc(N/C=C/C(=O)c3ccccc3)cc2)c1C`, the z-score was -0.0688.

`O=S(=O)(c1ccc(F)cc1)N1CCN(c2ncnc3c2cnn3-c2ccccc2)CC1` had a z-score of 2.11. With `Cc1ccc2c(ccc[n+]2CC(=O)c2ccccc2)c1`, the z-score turned out to be 0.0557. In the case of `Cc1nc(SCC(=O)c2ccc(F)cc2)c([N+](=O)[O-])[nH]1`, the z-score was -0.292. Turning to `COc1ccc(O)c(-c2[nH]ncc2C(=O)c2ccccc2)c1`, the z-score worked out at 0.0376. The same measure for `O=C(Nc1ccc2c(c1)CCC2)c1cccc(S(=O)(=O)N2CCN(c3ccc(F)cc3)CC2)c1`: -0.224; for `C1CSC2(N1)C1CC3CC2CC(C1)C31NCCS1` (centres undefined): 0.602. The compound `CCCNC(=O)NC(C)C12CC3CC(CC(C3)C1)C2` (centres undefined) came in with a z-score of -0.173. On to `Cc1cc(NC(=O)CCC(=O)N(CC(=O)NCC2CCCO2)Cc2ccc(F)cc2)no1` (centres undefined), for which the z-score was -0.218. Take `O=C(c1cccc(Cl)c1)N1CCN(C2CCCCCC2)CC1`: the z-score is 0.678. Take `CCC(=O)c1cc(F)c(N2CCN(S(=O)(=O)c3ccccc3)CC2)cc1C`: the z-score is -0.247. On to `CCNc1nc(NCC)nc(N(C)n2cnnc2)n1`, for which the z-score is -0.0641. On to `O=C(O)c1cc(S(=O)(=O)N2CCCC2)ccc1Br`, for which the z-score was 0.147. The value for `CC(=O)c1cccc(NC(=O)CN(c2cccc(F)c2)S(C)(=O)=O)c1` was -0.268. Consider `CC(=O)Nc1ccc(S(=O)(=O)N2CCc3ccccc3C2)cc1`, for which the z-score was 0.446.

On to `Cc1cc2nnc(SCC(=O)N3C(C)CCCC3C)n2c(N)n1` (centres undefined), for which the z-score was -0.291.

Regarding `NC(=O)CSc1nnnn1-c1ccc2c(c1)OCCO2`, the z-score was -0.327. Take `Cc1cc(NC(=O)Nc2cccc3ccccc23)no1`: the z-score is 0.348. In turn, `CCn1nc(C)c(Oc2ccccc2O)c1C` came in with a z-score of -0.589. As to `CCCC(=O)Nc1nc2ccc(S(=O)(=O)N3CCCCC3)cc2s1`, the z-score is -0.273. Turning to `Cc1cc(C)n(C(=O)c2ccc(NC(=O)CC(C)C)cc2)n1`, the z-score amounted to 0.147.

As for `CCOC(=O)Cc1csc(NC(=O)C2CCCCC2C(=O)O)n1` (centres undefined), the z-score was determined as 0.749. The value for `O=C(CSCC(=O)Nc1ccccc1)N/N=C/c1c(O)ccc2ccccc12` was -0.0184; that for `Cc1ccc(-c2ccc(/C=N/N3C(=O)C4C5C=CC(C6CC56)C4C3=O)o2)c([N+](=O)[O-])c1` (centres undefined) was -0.416; that for `CCOC(=O)Nc1ccc(Oc2ccccc2)cc1` was -0.451. In turn, `O=C(CSc1ccc2ccccc2n1)c1ccc2c(c1)OCO2` returned a z-score of -0.358. Turning to `O=C(O)CSc1nnnn1-c1ccc2c(c1)OCCO2`, the z-score was -0.0806.

Consider `COc1ccc(NC(=O)N2CCC(C(=O)c3ccc(F)cc3)CC2)cc1`, for which the z-score was found to be 0.923. For the compound `O=C(CSc1nnc(CNC(=O)c2cccs2)o1)c1ccccc1`, the z-score is -0.102.

Compound `O=C(CSC1=NCCS1)N1CCN(c2ccc(Cl)cc2)CC1` showed a z-score of 0.56.

As to `Cc1ccc(C)c(/C(O)=C2\C(=O)C(=O)N(CCCN3CCOCC3)C2c2cccnc2)c1` (centres undefined), the z-score was -0.222. `CCC(C)(C)n1nnnc1CN(Cc1cc2cc(OC)ccc2[nH]c1=O)C1CCCC1`: the z-score is -0.199. The same measure for `CCOC(=O)C1=C(C)C2C3C(=O)N(c4ccccc4C)C(=O)C3C1(C)C1C(=O)N(c3ccccc3C)C(=O)C21` (centres undefined): -0.246. The same measure for `O=S(=O)(NCC1CCCO1)c1ccc(S(=O)(=O)N2CCc3ccccc3C2)cc1` (centres undefined): 0.1; for `CCC(C)N(C(=O)COC(=O)/C=C/c1ccc(O)c(OC)c1)C1CCS(=O)(=O)C1` (centres undefined): 0.211; for `COc1cccc(C(=O)N2CCN(Cc3ccc4c(c3)OCO4)CC2)c1OC`: 0.584. `O=C(COC(=O)CCCSc1nc2ccccc2[nH]1)NC(=O)NC1CCCC1` gave a z-score of -0.664. On to `O=C(Nc1ccc2[nH]c(=S)sc2c1)c1ccccc1`, for which the z-score was active: 11.9. In turn, `Fc1ccc(OCCOCCNCC2CCCO2)cc1` (centres undefined) came in with a z-score of 0.411. The value for `COc1ccc2c(C)cc(SCn3nnc4ccccc4c3=O)nc2c1` was -0.169. As for `Cn1nc([N+](=O)[O-])c(C(C#N)c2nc3ccccc3n2C)c(Cl)c1=O` (centres undefined), the z-score came out at 0.13. Take `COC(=O)c1cn(NC(=O)c2cc(OC)cc(OC)c2)c(=O)c2ccccc12`: the z-score was -0.347. The same measure for `Cc1ccnc(Sc2ncccc2[N+](=O)[O-])n1`: -0.064; for `O=c1[nH]c(=O)n(Cc2ccccc2)c2c1C(C(F)(F)F)(C(F)(F)F)N=C(c1ccco1)N2`: -0.882. As to `CCc1nnc(NC(=O)CN2CCN(c3nc(-c4ccccc4)cs3)CC2)s1`, the z-score was -0.549. `COC(=O)c1ccc(OCC(O)Cn2nnc3ccccc32)cc1` (centres undefined) gave a z-score of -0.0658. The value for `COc1ccccc1-n1cnnc1SCC(=O)Nc1cc(C(C)(C)C)nn1-c1ccccc1` was -0.532; that for `CCS(=O)(=O)Nc1cccc(-c2cc(-c3ccccc3)c3cc(C)ccc3n2)c1` was 0.0339; that for `COC(=O)CCC(=O)c1oc2ccc(Br)cc2c1N` was -0.218. Turning to `O=C(NCc1ccc2c(c1)OCO2)c1nn2cccnc2c1Cl`, the z-score was -0.119.

In turn, `O=S(=O)(NCCc1cn2ccccc2n1)c1cccs1` came in with a z-score of -0.209.

In turn, `O=C(CSc1nc2ccccc2s1)NC1CCCc2ccccc21` (centres undefined) registered a z-score of -0.233. The value for `Cc1ccc2c(Cl)c(C(=O)NCCc3ccccc3)sc2c1` was -0.648. On to `COc1ccc(C2CC(c3ccccc3)Nc3ncnn32)cc1` (centres undefined), for which the z-score is -0.0835. For `COc1ccc(C(=O)Oc2ccc(/C=N/NC(=O)Cc3ccc([N+](=O)[O-])cc3)cc2)cc1`, the z-score was found to be 0.194. The value for `COc1ccc(OC)c(S(=O)(=O)NCCC2=CCCCC2)c1` was 0.351; that for `O=C(CCn1c2c(c3ccccc31)CCCC2)NNC(=O)c1ccccc1[N+](=O)[O-]` was 0.0578; that for `Cn1c(=O)c2c(ncn2CC(=O)N2CCCc3ccccc32)n(C)c1=O` was -0.221. Compound `CN(C)S(=O)(=O)c1ccc(S(=O)(=O)N(Cc2ccco2)Cc2ccccc2Cl)cc1` returned a z-score of -0.0415.

Turning to `Cc1cc(-c2ccccc2)n(-c2ccc(C(=O)N3CCN(c4ncccn4)CC3)cc2)n1`, the z-score was -0.572. The compound `Nc1nc(N)nc(-c2ccccc2)n1` came in with a z-score of 0.212. In turn, `CCCc1nnc(NC(=O)Cn2c(=O)sc3ccccc32)s1` came in with a z-score of -0.0252. On to `O=C(Nc1cccc(Cl)c1)c1ccc2c(=O)n3c(nc2c1)CCCCC3`, for which the z-score is 0.0126.

`CCCCCC(=O)Nc1nc(C)c(-c2csc(Nc3cc(Cl)ccc3OC)n2)s1`: the z-score was -0.438. The same measure for `COc1ccc2oc(=O)c(/C(C)=N/NC(=O)c3ccncc3)cc2c1`: -0.0773; for `Cc1cccc(N2C(=O)CC(N(O)c3ccccc3)C2=O)c1` (centres undefined): -0.319.

`COc1ccc(OC)c(N2C(=O)[C@@H]3C(c4ccccc4Cl)=NO[C@@H]3C2=O)c1` gave a z-score of 0.0684. As for `Cc1ccccc1Cn1cc(S(=O)(=O)CC(=O)Nc2nccs2)c2ccccc21`, the z-score was found to be 0.23. `COC(=O)C1=C(C)N=C2SC(C)C(=O)N2C1c1cccc(F)c1` (centres undefined) yielded a z-score of -0.721. For the compound `CC1Cc2ccccc2N1C(=O)CNCCCN(C)C` (centres undefined), the z-score was -0.471. Consider `Cn1cc(Cl)c(C(=O)OCC(=O)Nc2ccccc2)n1`, for which the z-score was -0.0575. With `COc1ccc(-c2c(C)n([O-])c3c([n+]2=O)CCCCC3)cc1`, the z-score was -0.0733. `CCOc1ccccc1/C=c1\sc2nc(-c3ccco3)nn2c1=O` had a z-score of -1.26. Consider `COc1ccc(CCn2c(SCC(=O)Nc3cc(C)on3)nc3ccccc3c2=O)cc1OC`, for which the z-score is -0.632. `COc1ccc(S(=O)(=O)N2CCC(C(=O)NCc3ccccn3)CC2)cc1Cl`: the z-score is -0.477. In turn, `CC(C)CNC(=O)C1CC(=O)OC12CCCCC2` (centres undefined) had a z-score of 0.0145.
